“And” between values parts separate entries of the source, which are not always exact repeats. Identical values can stand only once. The campaign covered roughly 48,000 compounds. About 1,200 (2.5%) were called active. Not shown: some 2% with an inconclusive outcome.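 The calls were made as follows: active = activation of at least 60% and not above a set upper limit (about 1 call in 100 departs from these limits); inconclusive = activation of 40% to 60%, or above that upper limit; inactive = activation under 40%.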 This is one part of the list.
molecular target: Probable G-protein coupled receptor 32 (Homo sapiens) (UniProt O75388); test: qHTS for Agonists of Human Resolvin D1 Receptor DRV1; settings: CHO-K1 GPR32 beta-arrestin PathHunter luminescence, 90 min; at 76.9 µM; active compounds read high; zero percent set by DMSO-only wells; also: 0% is about no effect
Method in brief: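 Readings come from a cell-based beta-arrestin complementation format: CHO-K1 GPR32 stable cells (2,500/well) treated 90 min with compounds, then beta-Gal substrate added for 1 h before chemiluminescence imaging.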

Chain of UniProt O75388 (O75388 whole entry, looked up): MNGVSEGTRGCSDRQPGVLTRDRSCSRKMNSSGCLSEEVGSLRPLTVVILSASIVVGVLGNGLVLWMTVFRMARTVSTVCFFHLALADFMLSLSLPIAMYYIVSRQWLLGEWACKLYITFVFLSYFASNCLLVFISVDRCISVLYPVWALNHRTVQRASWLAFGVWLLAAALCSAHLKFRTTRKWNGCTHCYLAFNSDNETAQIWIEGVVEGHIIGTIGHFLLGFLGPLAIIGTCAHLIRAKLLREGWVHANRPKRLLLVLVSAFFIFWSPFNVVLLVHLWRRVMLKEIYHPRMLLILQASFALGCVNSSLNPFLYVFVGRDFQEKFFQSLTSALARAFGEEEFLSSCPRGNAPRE

activation, inactive:
CCC(C(=O)NCCc1ccccc1)n1nc(C)c2sc3ccccc3c2c1=O (stereo not drawn) -27.5%, CCOc1ccc2oc(=O)cc(CN3CCN(C(=O)c4ccc(OC)c(OC)c4)CC3)c2c1 -22.2%, O=C(C1CCN(c2ncnc3c2nc2n3CCCCC2)CC1)N1CCN(c2ccccc2F)CC1 -5.23%, CCCNS(=O)(=O)c1cc(-c2nn3c(C)nnc3c3ccccc23)ccc1C -13.5%, Cc1ccc2oc(-c3ccc(Cl)c(NC(=O)Cc4ccccc4)c3)nc2c1 0.134%, COc1ccccc1CCNC(=O)Cc1ccc(NC(=O)N2CCSc3ncccc32)cc1 -12.2%, COc1ccc(CNC(=O)c2cc3c(=O)n(Cc4cccnc4)ccc3nc2C)cc1 -0.189%, COc1ccccc1CNC(=O)c1cc2c(=O)oc3ccc(C)cc3c2s1 -0.224%, CC(=O)N1CCCc2cc(S(=O)(=O)N3CCCC(C(=O)NCc4ccccc4Cl)C3)ccc21 (stereo not drawn) 21.8%, CCc1ccc(-c2nn(CC(=O)NC3CCCCC3)c3c2cnc2ccc(F)cc23)cc1 -14.7%, CCOC(=O)c1ccccc1NC(=O)CN(c1cccc(C)c1C)S(=O)(=O)c1ccccc1 5.98%, Cc1ccc(-n2c(=O)c3c4c(sc3n(Cc3cc(=O)n5cc(Cl)ccc5n3)c2=O)CCC4)cc1C -1.27%, CC(C)(C)c1ccc(OCc2nc3ccccc3n2CCOc2ccccc2)cc1 -23.8%, Cc1cccc(C)c1OCc1nc2c3cnn(-c4ccccc4F)c3ncn2n1 -14.2%, CC1CCc2c(cc(-c3ccccc3)n2-c2ccc(C(=O)NC(C)C)cc2)C1 (stereo not drawn) -34.3%, CCOc1ccccc1NC(=O)C1CCN(S(=O)(=O)c2ccc3[nH]c(=O)oc3c2)CC1 0.0686%, CCc1cccc(OCC(=O)Nc2ccc(S(=O)(=O)Nc3ncccn3)cc2)c1 23.3%, Cc1cc(C)cc(NC(=O)Cc2csc(C)n2)c1 -9.55%, CC(=O)c1ccc(S(=O)(=O)N2CCn3cccc3C2c2ccccc2F)cc1 (stereo not drawn) -2.32%, COc1cccc(NC(=O)CSc2nc3c([nH]c4ccccc43)c(=O)n2-c2cc(C)cc(C)c2)c1 -26.9%, Cc1ccc(-c2nc(CS(=O)CC(=O)NCc3ccccc3Cl)c(C)o2)cc1 (stereo not drawn) -6.17%, CCOC(=O)Cc1ccc(NC(=O)N2CCSc3ccccc32)cc1 -25.7%, COc1ccccc1NC(=O)CSC1=Nc2ccccc2C2=NC(CCC(=O)NCc3ccco3)C(=O)N12 (stereo not drawn) -7.85%, CCCN(CCC)CCCNC(=O)C1CCCN(Cc2nc(-c3ccc(Cl)cc3)oc2C)C1 (stereo not drawn) 0.0787%, COCCNC(=O)C1CCN(C(=O)c2cc3sccc3n2Cc2ccc(Cl)cc2)CC1 4.95%, COc1ccc(C2(Nc3cccc(F)c3)C(=O)c3ccccc3C2=O)cc1 -71.2%, CC(C)COC(=O)OCN1C(=O)CN(CCN2CC(=O)N(COC(=O)OCC(C)C)C(=O)C2)CC1=O -5.87%, CCOc1ccc2nc(SCC(=O)Nc3ccc(F)cc3)nc(-c3ccccc3)c2c1 -9.01%, O=c1ccc2cc(S(=O)(=O)Nc3ccc(F)c(Cl)c3)ccc2[nH]1 12.3%, Cn1nnc2c(NCc3ccc(Cl)cc3)ncnc21 0.632%, COc1cccc(CNC(=O)Cc2c(C)c3c(cc(C)c4c(C)c(C)oc43)oc2=O)c1 -7.02%, O=S(=O)(c1ccc(Cl)cc1)c1nc(-c2cccs2)oc1SCc1ccc(F)cc1 -26.3%, O=C(Nc1nc2ccccc2n1CCN1CCOCC1)c1cccc([N+](=O)[O-])c1 -5.79%, CC1=C(C(=O)Nc2ccc(Cl)cc2)C(c2ccccc2F)n2nc(SCc3cccc(Cl)c3)nc2N1 (stereo not drawn) -17.3%, COc1ccc(OC)c(NC(=O)C2Cc3ccccc3CN2S(=O)(=O)c2ccc(F)cc2)c1 (stereo not drawn) -8.89%, COc1ccc(NC(=O)Cn2c(=O)n(Cc3ccccc3OC)c(=O)c3cccnc32)cc1Cl -29.9%, Cc1ccc(Cn2c(=O)n(CCc3ccc(Cl)cc3)c(=O)c3ccccc32)cc1 -9.42%, CCc1ccc(CNC(=O)c2cc3n(n2)CCCN(Cc2ccccc2)C3=O)cc1 9.89%, CCCC(=O)Nc1cc2nn(-c3ccccc3)nc2cc1C 45%, CCc1ccccc1NC(=O)Nc1c(C)n(C)n(-c2ccccc2)c1=O -12.6%, CCOC(=O)c1c(C)[nH]c(C)c1S(=O)(=O)N1CCC(C(=O)Nc2ccc(OCC)cc2)CC1 5.49%, CCCCn1cc(S(=O)(=O)c2cc(C)ccc2C)c(=O)c2cc(F)c(N3CCC(C)CC3)cc21 -13.8%, COc1ccc(C(=O)NCC(c2ccco2)S(=O)(=O)c2ccc(F)cc2)cc1 (stereo not drawn) -7.28%, CCc1cccc(NC(=O)CN(c2ccc(C)c(C)c2)S(=O)(=O)c2ccsc2C(=O)OC)c1 -25.1%, Cc1ccc(C)c(N2CCN(C(=O)CN3C(=O)COc4ccc(S(=O)(=O)N5CCCC5)cc43)CC2)c1 -1.89%, CCCCN(CCCC)CCCNC(=O)Cn1cc2c(n1)-c1c(oc(C(=O)N3CCCC3)c1C)CC2 -21.1%, CCCc1nc2nc(C)c(NS(=O)(=O)c3ccc(CC(C)C)cc3)c(=O)n2[nH]1 8.75%, CCOC(=O)c1ccc(N2C(=O)c3[nH]nc(-c4ccc(C)cc4)c3C2c2cccs2)cc1 (stereo not drawn) -8.98%, CCCn1c(CCC(=O)Nc2cc(C(=O)OC)cc(C(=O)OC)c2)nc2cccnc21 4.51%, Cc1ccccc1CCNC(=O)c1ccc2c(c1)nc1n2CCOC1 -5.83%, CCOC(=O)c1[nH]cnc1C(=O)Nc1cccc(OC)c1 16.3%, CCCCOc1ccc(Cn2c(=O)sc3ccccc32)cc1OC -17.8%, CCCn1c(CCC(=O)Nc2cc(OC)cc(OC)c2)nc2cccnc21 1.16%, COC(=O)c1scc(-c2ccc(C)cc2)c1S(=O)(=O)Nc1cc(Cl)c(OC)cc1OC -2.25%, NC(=O)Cc1cccc(C(=O)c2ccccc2)c1N -0.514%, CCC(=O)N1c2ccccc2CC1C(=O)NCCc1cc(OC)c(OC)c(OC)c1 (stereo not drawn) -7.69%, Cc1cc(NC(=O)CCn2c(=O)c3cccn3c3cccnc32)ccc1Br -12.6%, COc1ccc(-n2c(=O)c3sc4ccccc4c3n(C)c2=O)cc1 -19.5%, Cc1ccc(NC(=O)C2CCCN(S(=O)(=O)c3cccc4nsnc34)C2)cc1C (stereo not drawn) -6.93%, CCCN1CCN(c2nnc(-n3cccc3C(=O)Nc3cc(Cl)ccc3C)s2)CC1 -32.1%, CCSc1ncc(Cl)c(C(=O)Nc2nc3ccc(S(C)(=O)=O)cc3s2)n1 -8.03%, CC(=O)SCC[N+](C)(C)C 9.75%, O=C1NCN(c2ccccc2)C12CCN(CCCC(c1ccc(F)cc1)c1ccc(F)cc1)CC2 5.84% and -42.7%, O=C(C1CCCN(S(=O)(=O)c2cccc3nsnc23)C1)N1CCN(c2ccccc2)CC1 (stereo not drawn) 29.1%, Cc1ccc(C)c(CN2C(=O)C(O)(c3c(C)[nH]c4ccccc34)c3ccccc32)c1 (stereo not drawn) -11%, COc1ccc(OC)c(CNC(=O)c2ccc3c(c2)c(C)c(C)n3Cc2ccc(Cl)cc2)c1 -21.2%, Nc1c(C(=O)Nc2ccccc2Cl)c2ccccn2c1C(=O)c1ccccc1 -1.6%, CCOc1ccc(NC(=O)c2c(NCc3cccc(OC)c3OC)sc3c2CCC3)cc1 -15.6%, CCc1ccc(NC(=O)CN(c2ccc(Cl)cc2)S(=O)(=O)c2ccsc2C(=O)OC)cc1 -7.38%, Cc1cc(N2CCC(C)CC2)nc2ccc(NC(=O)Cc3c(F)cccc3Cl)cc12 17.8%, Cc1ccc(Cn2cc(S(=O)(=O)c3cccc(Cl)c3)c(=O)c3cc(F)c(N4CCCCC4)cc32)cc1 -11.1%, CCOC(=O)N1CCN(C(=O)CN(c2ccccc2F)S(=O)(=O)c2ccc(C)cc2)CC1 0.32%, COC(=O)c1c(NC(=O)Cc2coc3cc(C)ccc23)sc2c1CCC2 -6.71%, Cc1ccc(Cl)cc1NC(=O)CSc1nccn1C -10.5%, Cc1cc(C)cc(NC(=O)CSc2nc(=O)n(CCN3CCOCC3)c3c2CCC3)c1 -0.887%, O=C(NCc1cccs1)c1ccc2c(c1)N(Cc1cccc(F)c1)C(=O)c1ccccc1S2 -4.28%, CCOC(=O)c1noc2nc(C)n(CC(=O)NC(C)CC)c(=O)c12 (stereo not drawn) -9.47%, CC(=O)c1cccc(NC(=O)CSc2nc(=O)n(Cc3ccco3)c3c2CCC3)c1 11.6%, CCOc1ccccc1CNC(=O)c1ccc2c(c1)N(Cc1ccc(C)cc1)CCS2 -27.1%, CCCCN(CC)C(=O)c1nn(C)c2c1CSc1ccccc1-2 -11%, Cc1oc(-c2cccc(Cl)c2)nc1CS(=O)(=O)CC(=O)NC(C)CCc1ccccc1 (stereo not drawn) 15.6%, O=C(CCC1N=C2c3ccccc3N=C(SCc3ccc(F)cc3)N2C1=O)NCCc1ccccc1 (stereo not drawn) -33.7%

activation, active:
CC(C)OCCCNc1ncnc2sc3c(c12)CCCC3 104%

Source: PubChem BioAssay AID1346428 (National Center for Advancing Translational Sciences (NCATS), 2018)
